{"source": "PubChem BioAssay AID686978", "about": "(National Center for Advancing Translational Sciences (NCATS), 2013)", "note": "Where “and” joins values, the source holds several entries; their conditions need not be identical. Equal entries are not always repeated. Among all 420,000 compounds or so, about 64,000 (15%) were called active. The shares of active, inactive and inconclusive entries below differ from those in the screen. The call rests on the fitted dose curve; in most records, active means well fitted inhibition curve with a large enough effect; inconclusive means small, poorly fitted or top-dose-only effect; inactive means flat fitted curve, though single readings scatter. Potencies beside an inconclusive call are fits to weak or partial responses and may not hold up. On the % scale 0 is the no-effect control and ±100 the full control effect; potency means the concentration at half of the fitted maximal effect; tags describe the fitted curve by direction and shape.", "data": [{"experiment": "qHTS for Inhibitors of human tyrosyl-DNA phosphodiesterase 1 (TDP1): qHTS in cells in absence of CPT; further: nearly all actives have a fitted effect of over 55% in size", "details": "DT40 Tdp1-/- hTDP1 cells, no CPT, ATP luminescence, 48 h; activity change, negative = growth inhibition: at 46.2 µM (top of the series)", "in_short": "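Growth of hTDP1-complemented DT40 Tdp1-knockout cells is measured by ATP luminescence after at least 48 hr compound exposure at 37 °C, with DMSO substituting for the 20 nM CPT used in the parallel screen.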", "values": [{"smiles": "O=C(c1ccco1)N1CCN(CCCCOc2ccc(F)cc2)CC1", "Potency": "inconclusive: 16.4 µM [inhibitor, single point]"}, {"smiles": "O=C(Nc1cccc2[nH]c([C@H]3C[C@H](O)[C@@H](CO)O3)nc12)NC(c1ccccc1)c1ccccc1", "activity change, negative = growth inhibition": "inactive: -9.62%"}, {"smiles": "Cc1ccccc1C(=O)Nc1ccccc1OCc1cc(=O)n2ccccc2n1", "Potency": "inconclusive: 14.6 µM [inhibitor, partial curve]"}, {"smiles": "Cc1ccc2nc(NC(=O)CCNS(=O)(=O)c3cccs3)sc2c1", "Potency": "inconclusive: 29.1 µM [inhibitor, single point]"}, {"smiles": "CC(c1c(O)c2ccccc2[nH]c1=O)C1(C)CCC(O)C(C)(C)O1", "note": "(configuration not stated)", "Potency": "inconclusive: 25.9 µM [inhibitor, single point]"}, {"smiles": "COc1ccc(NC(=O)Nc2ccc3c(c2)N(C)C(=O)CS3)cc1Cl", "Potency": "inconclusive: 29.1 µM [inhibitor, single point]"}, {"smiles": "CCOc1cc(N2CCOCC2)c(OCC)cc1NC(=O)c1cccc(S(=O)(=O)N2CC(C)OC(C)C2)c1", "note": "(configuration not stated)", "Potency": "inconclusive: 11.6 µM [inhibitor, partial curve, poor fit]"}, {"smiles": "CCN1CCN(c2cc(C)c3cc(NC(=S)N(C)Cc4ccccc4)ccc3n2)CC1", "Potency": "inconclusive: 29.1 µM [inhibitor, single point]"}, {"smiles": "Cc1ccccc1C(=O)Nc1ccccc1C(=O)NCC(C)C", "Potency": "inconclusive: 29.1 µM [inhibitor, single point]"}, {"smiles": "CC(=O)c1cccc(NC(=O)C(C)OC(=O)c2ccc(-n3cnnn3)cc2)c1", "note": "(configuration not stated)", "Potency": "inconclusive: 18.4 µM [inhibitor, single point]"}, {"smiles": "Nc1nc(NC(=O)C(Cl)(Cl)Cl)nn1-c1ccccc1", "activity change, negative = growth inhibition": "inactive: -18%"}, {"smiles": "Cc1cccc(-c2nc(S(=O)(=O)c3ccc(Cl)cc3)c(N3CCCCCC3)o2)c1", "Potency": "inconclusive: 18.4 µM [inhibitor, single point]"}, {"smiles": "COC(=O)C1=C(Nc2ccc(OC)cc2)C=C(C)C(C(=O)OC)C1c1ccc(C)cc1", "note": "(configuration not stated)", "Potency": "active: 16.4 µM"}, {"smiles": "Cc1cc2nccc(/C=C/c3ccc(N(C)C)cc3)c2cc1C", "Potency": "inconclusive: 35.5 µM [inhibitor, single point]"}, {"smiles": "O=C(CSc1nc(=O)n(CCN2CCOCC2)c2c1CCC2)Nc1ccc(OC(F)(F)F)cc1", "activity change, negative = growth inhibition": "inactive: -24.6%"}, {"smiles": "CCCOc1cc(N(CC)CC)ccc1/C=C(/C#N)c1nc2ccc(C)cc2[nH]1", "Potency": "active: 13 µM"}, {"smiles": "CCOc1ccc(CCNC(=O)c2c(C)oc3ncn(CC(C)C)c(=O)c23)cc1", "Potency": "inconclusive: 29.1 µM [inhibitor, single point]"}, {"smiles": "Cc1cccc(CS(=O)(=O)Cc2ccc(C(=O)NCc3ccccc3)o2)c1", "Potency": "inconclusive: 29.1 µM [inhibitor, single point] and inconclusive: 25.9 µM [inhibitor, single point]"}, {"smiles": "COc1cccc(CNc2ccc(F)c([N+](=O)[O-])c2)c1O", "Potency": "inconclusive: 23.1 µM [inhibitor, single point]"}, {"smiles": "Cc1cc(N2CCOCC2)nc2ccc(NC(=S)N3CCN(Cc4ccccc4)CC3)cc12", "Potency": "inconclusive: 29.1 µM [inhibitor, single point]"}, {"smiles": "CCOc1ccccc1CNC(=O)c1nc(-c2ccc(Cl)cc2)n2c1CCCCC2", "Potency": "inconclusive: 29.1 µM [inhibitor, partial curve, poor fit]"}, {"smiles": "COc1cccc(Nc2ncc3nc(-c4cc(F)cc(F)c4)c(=O)n(C[C@H]4CCCO4)c3n2)c1", "activity change, negative = growth inhibition": "inactive: 2.59%"}, {"smiles": "CCN(CC)c1nc2c(S(=O)(=O)c3ccccc3)nnn2c2ccc(Cl)cc12", "Potency": "inconclusive: 29.1 µM [inhibitor, single point]"}, {"smiles": "CC(=O)NS(=O)(=O)c1ccc(N=c2ssc3c2-c2cc(C)ccc2NC3(C)C)cc1", "Potency": "inconclusive: 29.1 µM [inhibitor, single point]"}, {"smiles": "O=c1c2ccccc2nc(CSc2nnnn2-c2ccccc2)n1-c1ccccc1Cl", "Potency": "inconclusive: 18.4 µM [inhibitor, single point]"}, {"smiles": "CN(CCc1ccccc1)C(C(=O)Nc1ccc2c(c1)OCCO2)c1ccnc2ccccc12", "note": "(configuration not stated)", "Potency": "inconclusive: 23.1 µM [inhibitor, single point]"}, {"smiles": "CN1CCN(CCCNC(=O)c2ccc(Cn3c(=S)[nH]c4ccc(Br)cc4c3=O)cc2)CC1", "Potency": "inconclusive: 25.9 µM [inhibitor, single point]"}, {"smiles": "CC1CCN(C(=O)c2ccccc2SCC(=O)NCC2CCCCC2)CC1", "activity change, negative = growth inhibition": "inactive: -27.5%"}, {"smiles": "O=C(/C=C/c1cccs1)c1ccc(NC(=O)c2cccc(Br)c2)cc1", "Potency": "inconclusive: 23.1 µM [inhibitor, single point]"}, {"smiles": "Clc1ccc(-c2nnc3sc(-c4ccc(Br)o4)nn23)cc1", "activity change, negative = growth inhibition": "inactive: -28.6%"}, {"smiles": "Cc1ccc(-n2nc(C)c(C3(O)C(=O)N(C)c4ccccc43)c2N)cc1", "note": "(configuration not stated)", "Potency": "inconclusive: 29.1 µM [inhibitor, single point]"}, {"smiles": "COc1ccc(S(=O)(=O)Nc2cccc(S(=O)(=O)N3CCCCCC3)c2)cc1", "Potency": "inconclusive: 1.84 µM [inhibitor, partial curve, poor fit]"}, {"smiles": "Clc1ccccc1CNc1ncnc2c1nc1n2CCCC1", "Potency": "inconclusive: 18.4 µM [inhibitor, single point]"}, {"smiles": "Cc1ccc(OCC(=O)c2c(N)n(C)c(=O)n(C)c2=O)c([N+](=O)[O-])n1", "activity change, negative = growth inhibition": "inactive: 2.36%"}, {"smiles": "Cn1c(=O)c2c(-c3ccccc3)n(Cc3cccnc3)cc2n(C)c1=O", "activity change, negative = growth inhibition": "inactive: 8.19%"}, {"smiles": "COc1cc(OC)cc(N2CC(C)(C)C2=O)c1", "Potency": "inconclusive: 18.4 µM [inhibitor, single point]"}, {"smiles": "Cc1ccc(S(=O)(=O)c2nc(-c3cccs3)oc2NCCCN(C)C)cc1", "activity change, negative = growth inhibition": "inactive: 2.97%"}, {"smiles": "CC(=NNC(=S)N1CC2CCC(CC2)C1)c1ccncn1", "Potency": "active: 0.0291 µM"}, {"smiles": "Cc1ccccc1C(=O)Oc1cc(-c2ccc3c(c2)OCO3)cc(=O)c2c(C)oc(C)c12", "Potency": "inconclusive: 29.1 µM [inhibitor, single point]"}, {"smiles": "CN(C)C(=O)c1ccc(NC(=O)c2cc(-n3cnnc3)ccc2Cl)cc1", "Potency": "inconclusive: 16.4 µM [inhibitor, single point]"}, {"smiles": "O=C(COc1ccccc1Cl)N(Cc1ccco1)Cc1ccco1", "Potency": "active: 23.1 µM"}, {"smiles": "Cc1ccccc1CN1C(=O)C(C)Sc2ccc(-c3ccco3)cc21", "note": "(configuration not stated)", "Potency": "inconclusive: 29.1 µM [inhibitor, single point]"}]}]}
